16 molecules from patent US20250163048A1 (Tango Therapeutics, Inc., priority 2022, published 2025) can be followed below.

Where two headings read alike, the source gives them in different places.

In one test the test system is MTAP-deleted cell line. As to the kind of experiment: viability assay for the MTAP-deleted cell line. The class given is cell-based. The following applies: Homo sapiens, HAP1, viability assay.
Test [1] relates to HAP1 MTAP-intact cell line. As to the kind of experiment: SDMA in-cell western assay, HAP1 MTAP-intact. To be noted: Homo sapiens.
For test [2], the system named is HAP1 MTAP-deleted cell line. As to the kind of experiment: SDMA in-cell western assay, HAP1 MTAP-deleted. The following applies: for IC50 / IC90: Homo sapiens; for Hap1 MTAP intact/deleted ratio: IC50 ratio between HAP1 MTAP-intact and HAP1 MTAP-deleted cell line.
Setting [3] is: HAP1, read-out: Hap1 MTAP intact IC50, SDMA in-cell western, HAP1 MTAP-intact cell line.
Where [4] appears, read: HAP1, read-out: Hap1 MTAP deleted IC50, SDMA in-cell western, HAP1 MTAP-deleted cell line.
Where [5] appears, read: HAP1, read-out: Hap1 MTAP deleted IC90, SDMA in-cell western, HAP1 MTAP-deleted cell line.
Setting [6] is: HAP1, read-out: Hap1 MTAP intact IC50, SDMA in-cell western assay, HAP1 MTAP-intact cell line.
Setting [7] is: HAP1, read-out: Hap1 MTAP deleted IC50, SDMA in-cell western assay, HAP1 MTAP-deleted cell line.
[8] abbreviates: HAP1, read-out: Hap1 MTAP deleted IC90, SDMA in-cell western assay, HAP1 MTAP-deleted cell line.

Take `C[C@H]1CC[C@H](c2ccc3cn([C@H]4CCN(C)C4)nc3c2)N(C(=O)C(=O)Nc2cncc3cn[nH]c23)C1` [Compound 117, 2-((2R,5S)-5-methyl-2-(2-((S)-1-methylpyrrolidin-3-yl)-2H-indazol-6-yl)piperidin-1-yl)-2-oxo-N-(1H-pyrazolo[4,3-c]pyridin-7-yl)acetamide]: the concentration for half-maximal inhibition (IC50) in the test with MTAP-deleted cell line is less than 0.1 µM; in test [1] (setting [3]), 0.005 to 0.05 µM; in test [2] (setting [4]) it was less than 0.005 µM. For the same molecule, the IC90 in test [2] (setting [5]) is less than 0.075 µM. Moreover, the “Hap1 MTAP intact/deleted ratio” value in test [2] (SDMA in-cell western) is given as “A (“A” indicates an IC50 ratio greater than or equal to 30 fold)”.

Take `CC1=C(c2nc3cc([C@H]4CC[C@H](C)CN4C(=O)C(=O)Nc4ccn5ccnc5c4)ccc3s2)CCN(C)C1` [Compound 125, 2-((2R,5S)-2-(2-(1,5-dimethyl-1,2,3,6-tetrahydropyridin-4-yl)benzo[d]thiazol-5-yl)-5-methylpiperidin-1-yl)-N-(imidazo[1,2-a]pyridin-7-yl)-2-oxoacetamide]: the IC50 was less than 0.1 µM with MTAP-deleted cell line, greater than 0.05 µM in test [1] (setting [3]) and less than 0.005 µM in test [2] (setting [4]). Moreover, the IC90 in test [2] (setting [5]) is less than 0.075 µM. Besides, the “Hap1 MTAP intact/deleted ratio” value in test [2] (SDMA in-cell western) is reported as “A (“A” indicates an IC50 ratio greater than or equal to 30 fold)”.

In the case of `C[C@@H]1CC[C@@H](c2cnco2)N(C(=O)C(=O)Nc2cnc(N)c3cn[nH]c23)C1` (racemic) [Compound 239, N-(4-Amino-1H-pyrazolo[4,3-c]pyridin-7-yl)-2-oxo-2-[rac-(2S,5R)-5-methyl-2-oxazol-5-yl-1-piperidyl]acetamide], the results for the IC50 (with MTAP-deleted cell line; in test [1] (setting [6]); in test [2] (setting [7])) were less than 0.1 µM, greater than 0.05 µM and 0.005 to 0.05 µM, respectively. Besides, the IC90 in test [2] (setting [8]) is less than 0.075 µM. In addition, the “Hap1 MTAP intact/deleted ratio” value in test [2] (SDMA in-cell western assay) is reported as “C (“C” indicates an IC50 ratio of less than 15 fold)”.

Turning to `C[C@H]1CC[C@H](c2cccc(Cl)c2)N(C(=O)C(=O)Nc2cnc(N)c3cn[nH]c23)C1` [Compound 80, N-(4-amino-1H-pyrazolo[4,3-c]pyridin-7-yl)-2-((2R,5S)-2-(3-chlorophenyl)-5-methylpiperidin-1-yl)-2-oxoacetamide], the IC50 is less than 0.1 µM in the test on MTAP-deleted cell line, 0.005 to 0.05 µM in test [1] (setting [3]) and less than 0.005 µM in test [2] (setting [4]). Besides, the IC90 in test [2] (setting [5]) is less than 0.075 µM. Moreover, the “Hap1 MTAP intact/deleted ratio” value in test [2] (SDMA in-cell western) is listed as “B (“B” indicates an IC50 ratio greater than or equal to 15 fold but lower than 30 fold)”.

Turning to `C[C@H]1CC[C@H](c2cccc(C#N)c2)N(C(=O)C(=O)Nc2cnc(N)c3cn[nH]c23)C1` [Compound 183, N-(4-amino-1H-pyrazolo[4,3-c]pyridin-7-yl)-2-((2R,5S)-2-(3-cyanophenyl)-5-methylpiperidin-1-yl)-2-oxoacetamide], the values for the IC50 (in the test with MTAP-deleted cell line; in test [1] (setting [3]); in test [2] (setting [4])) were less than 0.1 µM, 0.005 to 0.05 µM and less than 0.005 µM, respectively. Besides, the IC90 in test [2] (setting [5]) is less than 0.075 µM. Besides, the “Hap1 MTAP intact/deleted ratio” value in test [2] (SDMA in-cell western) is “B (“B” indicates an IC50 ratio greater than or equal to 15 fold but lower than 30 fold)”.

Regarding `C[C@H]1CCN(C(=O)C(=O)Nc2cnc(N)c3cn[nH]c23)[C@@H](c2ccccc2)C1` (racemic) [Compound 209, N-(4-Amino-1H-pyrazolo[4,3-c]pyridin-7-yl)-2-oxo-2-[rac-(2R,4S)-4-methyl-2-phenyl-1-piperidyl]acetamide], the IC50 in the test on MTAP-deleted cell line was less than 0.1 µM; in test [1] (setting [6]), greater than 0.05 µM; in test [2] (setting [7]) it was less than 0.005 µM. The IC90 in test [2] (setting [8]) was less than 0.075 µM. The “Hap1 MTAP intact/deleted ratio” value in test [2] (SDMA in-cell western assay) was “A (“A” indicates an IC50 ratio greater than or equal to 30 fold)”.

On to `C[C@H]1CC[C@H](c2ccc(CN(C)C)cc2)N(C(=O)C(=O)Nc2cnc(N)c3cn[nH]c23)C1` [Compound 154, N-(4-amino-1H-pyrazolo[4,3-c]pyridin-7-yl)-2-((2R,5S)-2-(4-((dimethylamino)methyl)phenyl)-5-methylpiperidin-1-yl)-2-oxoacetamide], for which the IC50 in the test with MTAP-deleted cell line is less than 0.1 µM; in test [1] (setting [3]), greater than 0.05 µM; in test [2] (setting [4]), less than 0.005 µM. Moreover, the concentration for an effect of 90% (IC90) in test [2] (setting [5]) is less than 0.075 µM. Further, the “Hap1 MTAP intact/deleted ratio” value in test [2] (SDMA in-cell western) is “B (“B” indicates an IC50 ratio greater than or equal to 15 fold but lower than 30 fold)”.

In the case of `CC(CN(C)C)c1nc2cc([C@H]3CC[C@H](C)CN3C(=O)C(=O)Nc3cnc(N)c4cn[nH]c34)ccc2s1` (stereo partly drawn) [Compound 35, N-(4-amino-1H-pyrazolo[4,3-c]pyridin-7-yl)-2-((2R,5S)-2-(2-(1-(dimethylamino)propan-2-yl)benzo[d]thiazol-5-yl)-5-methylpiperidin-1-yl)-2-oxoacetamide], the results for the IC50 (in the test with MTAP-deleted cell line; in test [1] (setting [3]); in test [2] (setting [4])) were less than 0.1 µM, 0.005 to 0.05 µM and less than 0.005 µM, respectively. Also, the IC90 in test [2] (setting [5]) is less than 0.075 µM. The “Hap1 MTAP intact/deleted ratio” value in test [2] (SDMA in-cell western) is “C (“C” indicates an IC50 ratio of less than 15 fold)”.

With `C[C@H]1CC[C@H](c2cncc(Cl)c2)N(C(=O)C(=O)Nc2cnc(N)c3cn[nH]c23)C1` (racemic) [Compound 203, N-(4-Amino-1H-pyrazolo[4,3-c]pyridin-7-yl)-2-oxo-2-[rac-(2R,5S)-2-(5-chloro-3-pyridyl)-5-methyl-1-piperidyl]acetamide], the IC50 was less than 0.1 µM with MTAP-deleted cell line, 0.005 to 0.05 µM in test [1] (setting [6]) and less than 0.005 µM in test [2] (setting [7]). For the same molecule, the IC90 in test [2] (setting [8]) was less than 0.075 µM. For the same molecule, the “Hap1 MTAP intact/deleted ratio” value in test [2] (SDMA in-cell western assay) is reported as “A (“A” indicates an IC50 ratio greater than or equal to 30 fold)”.

For `C[C@H]1CC[C@H](c2ccc3sc(C4(CN(C)C)COC4)nc3c2)N(C(=O)C(=O)Nc2cncc3cn[nH]c23)C1` [Compound 112, 2-((2R,5S)-2-(2-(3-((dimethylamino)methyl)oxetan-3-yl)benzo[d]thiazol-5-yl)-5-methylpiperidin-1-yl)-2-oxo-N-(1H-pyrazolo[4,3-c]pyridin-7-yl)acetamide], the IC50 in the test on MTAP-deleted cell line was less than 0.1 µM; in test [1] (setting [3]) it was greater than 0.05 µM; in test [2] (setting [4]), less than 0.005 µM. Moreover, the concentration for an effect of 90% (IC90) in test [2] (setting [5]) is less than 0.075 µM. In test [2] (SDMA in-cell western), the “Hap1 MTAP intact/deleted ratio” value was “B (“B” indicates an IC50 ratio greater than or equal to 15 fold but lower than 30 fold)”.

For the molecule `CC[C@@H]1CC[C@H](C)N(C(=O)C(=O)Nc2cnc(N)c3cn[nH]c23)C1` (racemic) [Compound 223, N-(4-Amino-1H-pyrazolo[4,3-c]pyridin-7-yl)-2-oxo-2-[rac-(2S,5R)-5-ethyl-2-methyl-1-piperidyl]acetamide], the IC50 was 0.1 to 1 µM in the test on MTAP-deleted cell line, greater than 0.05 µM in test [1] (setting [6]) and less than 0.005 µM in test [2] (setting [7]). Besides, the “Hap1 MTAP intact/deleted ratio” value in test [2] (SDMA in-cell western assay) is reported as “A (“A” indicates an IC50 ratio greater than or equal to 30 fold)”.

As for `CC(C)n1nccc1[C@H]1CC[C@@H](C)CN1C(=O)C(=O)Nc1cnc(N)c2cn[nH]c12` (stereo in doubt) [Compound 234, N-(4-Amino-1H-pyrazolo[4,3-c]pyridin-7-yl)-2-oxo-2-[rac-(2R,5R)-2-(2-isopropylpyrazol-3-yl)-5-methyl-1-piperidyl]acetamide], the IC50 is 0.1 to 1 µM in the test on MTAP-deleted cell line, greater than 0.05 µM in test [1] (setting [6]) and greater than 0.05 µM in test [2] (setting [7]). Besides, the IC90 in test [2] (setting [8]) is greater than 0.125 µM. Moreover, the “Hap1 MTAP intact/deleted ratio” value in test [2] (SDMA in-cell western assay) is on record as “B (“B” indicates an IC50 ratio greater than or equal to 15 fold but lower than 30 fold)”.

On to `C[C@H]1CC[C@H](c2ccc3sc(C4CC5(C4)CN(C)C5)nc3c2)N(C(=O)C(=O)Nc2ccn3ccnc3c2)C1` [Compound 44, N-(imidazo[1,2-a]pyridin-7-yl)-2-((2R,5S)-5-methyl-2-(2-(2-methyl-2-azaspiro[3.3]heptan-6-yl)benzo[d]thiazol-5-yl)piperidin-1-yl)-2-oxoacetamide], for which the IC50 with MTAP-deleted cell line is less than 0.1 µM; in test [1] (setting [3]), greater than 0.05 µM; in test [2] (setting [4]), less than 0.005 µM. The IC90 in test [2] (setting [5]) is less than 0.075 µM. Besides, the “Hap1 MTAP intact/deleted ratio” value in test [2] (SDMA in-cell western) was “B (“B” indicates an IC50 ratio greater than or equal to 15 fold but lower than 30 fold)”.

Turning to `C[C@H]1CC[C@H](c2ccc3sc([C@H](C)CN4CCCC4)nc3c2)N(C(=O)C(=O)Nc2cncc3cn[nH]c23)C1` [Compound 28, 2-oxo-N-(1H-pyrazolo[4,3-c]pyridin-7-yl)-2-[(2R,5S)-5-methyl-2-[2-[(1R)-1-methyl-2-pyrrolidin-1-yl-ethyl]-1,3-benzothiazol-5-yl]-1-piperidyl]acetamide], the IC50 in the test on MTAP-deleted cell line is less than 0.1 µM; in test [1] (setting [3]), 0.005 to 0.05 µM; in test [2] (setting [4]), less than 0.005 µM. Further, the IC90 in test [2] (setting [5]) is less than 0.075 µM. In addition, in test [2] (SDMA in-cell western), the “Hap1 MTAP intact/deleted ratio” value is on record as “C (“C” indicates an IC50 ratio of less than 15 fold)”.

For `C[C@H]1CC[C@H](c2cccc(CCN(C)C)c2)N(C(=O)C(=O)Nc2cnc(N)c3cn[nH]c23)C1` (racemic) [Compound 230, N-(4-Amino-1H-pyrazolo[4,3-c]pyridin-7-yl)-2-oxo-2-[rac-(2R,5S)-2-[3-[2-(dimethylamino)ethyl]phenyl]-5-methyl-1-piperidyl]acetamide], the IC50 in the test with MTAP-deleted cell line was less than 0.1 µM; in test [1] (setting [6]), greater than 0.05 µM; in test [2] (setting [7]), 0.005 to 0.05 µM. In test [2] (setting [8]), the IC90 is less than 0.075 µM. The “Hap1 MTAP intact/deleted ratio” value in test [2] (SDMA in-cell western assay) was “C (“C” indicates an IC50 ratio of less than 15 fold)”.

As to `C[C@H]1CC[C@H](c2ccc(F)cc2)N(C(=O)C(=O)Nc2cnc(N)c3cn[nH]c23)C1` [Compound 101, N-(4-amino-1H-pyrazolo[4,3-c]pyridin-7-yl)-2-((2R,5S)-2-(4-fluorophenyl)-5-methylpiperidin-1-yl)-2-oxoacetamide], the IC50 with MTAP-deleted cell line is less than 0.1 µM; in test [1] (setting [3]), 0.005 to 0.05 µM; in test [2] (setting [4]), less than 0.005 µM. Further, the IC90 in test [2] (setting [5]) is less than 0.075 µM. Also, the “Hap1 MTAP intact/deleted ratio” value in test [2] (SDMA in-cell western) was “B (“B” indicates an IC50 ratio greater than or equal to 15 fold but lower than 30 fold)”.
